Data published in PubChem BioAssay AID1768 (National Center for Advancing Translational Sciences (NCATS), 2009).
Among all 270,000 compounds or so, about 620 (0.23%) were called active. This list was built around the results that the source calls inconclusive (neither active nor inactive); the mix of calls is not that of the screen. Calls come from the whole dose curve; as a rule, active = well fitted inhibition curve with a large enough effect in the polarisation, with a control signal flat (not every such curve was filed as active); inconclusive = small, poorly fitted or top-dose-only effect, or effect the other way, or a change in a side signal; inactive = no such curve, though single readings can be large or run the other way; the % refers to the polarisation. Where the call is inconclusive, the potency comes from a doubtful curve fit. “Side channel” marks fits to a control or component signal instead of the main read-out.

Target: Menin (Homo sapiens) (UniProt O00255)
Assay: qHTS Assay for Inhibitors Targeting the Menin-MLL Interaction in MLL Related Leukemias: Competition With Texas Red Labeled MLL-derived Mutant Peptide; for FP activity change, negative = inhibition: % of control where 0% means no effect
Conditions: fluorescence polarization; FP activity change, negative = inhibition: at 61.6 µM (top of the series)
Potency is the fitted concentration of half-maximal effect; tags give direction and shape of the fitted curve or compound fluorescence and quenching.

Sequence of UniProt O00255 (O00255 whole entry, looked up): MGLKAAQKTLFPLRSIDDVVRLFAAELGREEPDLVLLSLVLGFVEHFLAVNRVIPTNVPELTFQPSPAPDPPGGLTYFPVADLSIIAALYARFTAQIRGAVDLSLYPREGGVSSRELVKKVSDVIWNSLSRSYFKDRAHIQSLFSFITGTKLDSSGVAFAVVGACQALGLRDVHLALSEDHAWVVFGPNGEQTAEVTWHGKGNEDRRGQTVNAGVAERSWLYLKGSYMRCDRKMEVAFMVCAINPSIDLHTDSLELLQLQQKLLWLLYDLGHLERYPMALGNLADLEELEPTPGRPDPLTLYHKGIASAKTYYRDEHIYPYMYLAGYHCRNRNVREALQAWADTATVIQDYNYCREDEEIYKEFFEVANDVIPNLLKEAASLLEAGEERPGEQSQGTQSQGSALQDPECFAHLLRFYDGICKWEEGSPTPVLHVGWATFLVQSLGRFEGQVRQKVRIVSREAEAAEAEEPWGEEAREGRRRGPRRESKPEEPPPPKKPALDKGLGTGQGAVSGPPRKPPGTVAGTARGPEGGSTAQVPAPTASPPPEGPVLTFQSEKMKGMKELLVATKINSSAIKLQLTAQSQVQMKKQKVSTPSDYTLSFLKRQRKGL

Potency, active:
COc1ccccc1-c1csc(NC(=O)c2cc(-c3cccs3)nc3ccccc23)n1 8.91 µM

Potency, inconclusive:
CC(C)(C)c1ccc(-c2cc(-c3ccccc3O)[nH]n2)cc1 14.1 µM [quencher, side channel, partial curve]
CCOC(=O)C1CCN(C(=O)c2oc3ccc(S(=O)(=O)N4CCCCCC4)cc3c2C)CC1 3.98 µM [fluorescent, side channel, full curve]
CC(=C/c1ccccc1)/C=N/n1c(-c2ccco2)n[nH]c1=S 31.6 µM [quencher, side channel, single point]
Cc1cccc2cc(CN(Cc3nnnn3Cc3ccccc3)C3CCCC3)c(=O)[nH]c12 3.55 µM [fluorescent, side channel, single point]
CCCCCc1ccc(OCCCC[n+]2ccc(C)cc2)c(CCCCC)c1 1.58 µM [fluorescent, side channel, partial curve, poor fit]
O=C(Nc1ccccc1)Nc1ccccc1Br 20 µM [quencher, side channel, partial curve]
COc1cccc(C(=O)Nc2cccc(OCC(=O)c3ccccc3)c2)c1 28.2 µM [quencher, side channel, partial curve]
O=C(CCCN1CC=C(n2c(=O)[nH]c3ccccc32)CC1)c1ccc(F)cc1 22.4 µM [fluorescent, side channel, single point]
CN(C)S(=O)(=O)c1ccc(S(=O)(=O)N2CCCC(C(=O)NC3CCCC3)C2)cc1 (stereo unspecified) 39.8 µM [fluorescent, side channel, single point]
Cc1ccc(S(=O)(=O)N2CCC(Oc3ccc(-n4cnnn4)cc3)CC2)cc1 39.8 µM [fluorescent, side channel, single point]
O=C(Nc1cccc(C(=O)Nc2ccc(Br)cc2)c1)c1ccccc1 31.6 µM [inhibitor, single point]
Cc1cccc(-c2oc3ccc(-c4ccc5c(c4)OCO5)cc3c2/C=C/c2ccc(N)cc2)c1 3.98 µM [quencher, side channel, full curve]
O=C(Nc1ccc(Nc2ccccc2)cc1)c1ccccc1F 14.1 µM [quencher, side channel, partial curve]
O=[N+]([O-])c1ccc(O)c(/C=N/Nc2ncnc3c2cnn3-c2ccccc2)c1 3.98 µM [quencher, side channel, full curve]
CCOC(=O)c1c(NC(=O)CSc2c[nH]c3ccccc23)sc2c1CCCC2 11.2 µM [quencher, side channel, partial curve]
O=C(/C=C\Nc1ccc2c(c1)OCO2)c1ccc(Cl)s1 31.6 µM [quencher, side channel, single point]
COc1cccc(C(=S)N2CCCC2)c1OC 10 µM [fluorescent, side channel, full curve]
Cn1cc([N+](=O)[O-])c(C(=O)Nc2nc(-c3ccc(Cl)cc3)cs2)n1 20 µM [quencher, side channel, partial curve]
CCCOc1ccc(N2C(=O)CC(N(Cc3ccc(OC)cc3)C(=S)Nc3ccccc3)C2=O)cc1 (stereo unspecified) 2.24 µM [quencher, side channel, partial curve]
Cc1cc(C(=O)N/N=C/c2ccc(O)c([N+](=O)[O-])c2)c(C)n1-c1ccc(F)cc1 15.8 µM [quencher, side channel, partial curve]
CCOC(=O)N1CCC(N2CCCC(C(=O)c3cc(F)ccc3OC)C2)CC1 (stereo unspecified) 3.55 µM [inhibitor, partial curve]
CCC(C)(C)n1nnnc1C(c1cccnc1)N1CCC(Cc2ccccc2)CC1 (stereo unspecified) 10 µM [fluorescent, side channel, partial curve]
O=c1cc(CN2CCN(S(=O)(=O)c3ccc4c(c3)OCCO4)CC2)c2ccc(O)cc2o1 28.2 µM [quencher, side channel, single point]
O=C(C1=C(O)C(=O)N(c2ncccn2)C1c1ccc(Cl)c(Cl)c1)c1ccco1 (stereo unspecified) 25.1 µM [quencher, side channel, single point]
CCOC(=O)CSc1nnc(-c2ccccc2NC(=O)c2ccccc2)o1 5.01 µM [inhibitor, full curve, poor fit]
COc1cc([N+](=O)[O-])cc(/C=N/NC(=O)C(C)Nc2cccc3ccccc23)c1O (stereo unspecified) 20 µM [quencher, side channel, partial curve]
COc1ccc(OC)c(/C=N/NC(=O)CN2CCSCC2)c1 35.5 µM [inhibitor, single point]
Cc1ccc(C(=O)NNC(=O)CSc2nnc3c(n2)[nH]c2ccc(F)cc23)cc1 39.8 µM [inhibitor, single point]
c1ccc2c(c1)Cc1cc3cc4c(cc3nc1-2)OCO4 10 µM [quencher, side channel, partial curve]
O=C(/C=C/c1ccc(Br)cc1)c1ccc(NC(=O)c2ccco2)cc1 31.6 µM [inhibitor, single point]
COc1cccc(NS(=O)(=O)c2ccc3[nH]cc(C(=O)NCCCOC(C)C)c(=O)c3c2)c1 10 µM [quencher, side channel, partial curve]
c1ccc(N/N=C(\Cc2nc3ccccc3[nH]2)c2ccccc2)cc1 11.2 µM [quencher, partial curve]
COc1ccc(/C=C(\C#N)C(=O)OCC(=O)Nc2ccc(-c3nc4ccc(C)cc4s3)cc2)cc1 7.94 µM [quencher, side channel, partial curve]
CN(C)C(=O)c1ccc(-c2nc(NCc3cccnc3)c3ccccc3n2)cc1 20 µM [inhibitor, partial curve]
COc1cccc(N(C(=O)c2snc(C(N)=O)c2N)C(C(=O)NCC2CCCO2)c2cccs2)c1 (stereo unspecified) 39.8 µM [quencher, side channel, single point]
Cc1ccccc1NC(=S)NC(NC(=O)COc1ccccc1)C(Cl)(Cl)Cl (stereo unspecified) 39.8 µM [inhibitor, single point]
Cc1ccc(NC(=O)CN2C(=O)S/C(=C\c3cc(C)n(-c4ccc(C(=O)O)cc4)c3C)C2=O)cc1 35.5 µM [quencher, side channel, single point]
Cc1cc(C)cc(C(=O)N(C)[C@H](Cc2ccc(-c3ccccc3)cc2)C(=O)N[C@@H](Cc2c[nH]c3ccccc23)C(=O)O)c1 10 µM [quencher, side channel, full curve]
CCOC(=O)c1c(-c2ccccc2)[nH]c2ccc(O)cc12 25.1 µM [quencher, side channel, single point]
C/C(=N\NC(=O)c1cc2ccccc2cc1O)c1cccs1 15.8 µM [quencher, side channel, partial curve]
CC1CCC(NC(=O)Cn2c(=O)oc3cc(S(=O)(=O)N4CCCC4)ccc32)CC1 (stereo unspecified) 31.6 µM [inhibitor, single point]
COC(=O)c1c(N)c2ccccc2[nH]c1=O 50.1 µM [inhibitor, partial curve, poor fit]
COc1ccc(C)cc1NC(=O)c1ccccc1NS(=O)(=O)c1cccc2cccnc12 39.8 µM [inhibitor, single point]
CC(NS(=O)(=O)c1ccc(OCC(=O)Nc2cccc([N+](=O)[O-])c2)cc1)c1ccccc1 (stereo unspecified) 28.2 µM [quencher, side channel, single point]
O=C(NC(Cc1c[nH]c2ccccc12)C(=O)N/N=C/c1ccc(Br)cc1)c1cccs1 (stereo unspecified) 3.16 µM [quencher, side channel, full curve, poor fit]
O=C(CSC1=NCCS1)Nc1ccc2ccccc2c1 11.2 µM [quencher, side channel, partial curve]
COc1ccc(NC2=CC(=S)NC(C)(C)C2)cc1 44.7 µM [fluorescent, side channel, single point]
COc1ccc(OC)c(CNc2ccc(F)c(Cl)c2)c1 12.6 µM [quencher, side channel, single point]

FP activity change, negative = inhibition, inactive:
O=C(NC1CCCCC1)C(c1ccccc1F)N(Cc1ccco1)C(=O)Cn1nnc2ccccc21 (stereo unspecified) -13.5%
COc1ccccc1-c1nnc(N)s1 8.34%
CCOC(=O)c1cnn2c(C(F)(F)F)cc(-c3ccco3)nc12 10.4%
Cc1ccc(CNc2cnccn2)cc1 22%
COc1ccc(N2CCN(C(=O)C(CCSC)N=C3NS(=O)(=O)c4ccccc43)CC2)cc1 (stereo unspecified) 6.37%
CC(C)C(=O)N[C@@H]1CCCN1C(=O)/C=C\c1ccccc1 -2.76% [at 11.7 µM]
CCOC(=O)c1cc(CC)sc1NC(=O)c1cc(OCC)c(OCC)c(OCC)c1 -9.59%
